Growth inhibition call data for ten molecules are collected here from the antibiotic and cytotoxicity screens of Wong et al. (2023).

Each structure is given as a SMILES string. This is one part of the list.

This experiment relates to S. aureus RN4220. Nature of the experiment: growth inhibition call (relative growth <= 0.2). The note with it: 50 µM.
Take `C[C@@H]1CCCCO[C@H](CN(C)C(=O)Nc2ccc(F)cc2)[C@@H](C)CN([C@H](C)CO)C(=O)c2cc(NC(=O)Nc3ccc(C(F)(F)F)cc3)ccc2O1`: the growth inhibition call is “inactive”.

For `COc1ccc(S(=O)(=O)N(C)C[C@@H]2Oc3ccc(NS(=O)(=O)c4c(C)noc4C)cc3C(=O)N([C@H](C)CO)C[C@H]2C)cc1`, the growth inhibition call was “inactive”.

Take `C[C@@H]1CN([C@@H](C)CO)C(=O)c2cc(NS(=O)(=O)c3ccccc3)ccc2O[C@@H](C)CCCCO[C@@H]1CN(C)Cc1ccc(C(F)(F)F)cc1`: the growth inhibition call was “inactive”. Consider `O=C([C@H]1[C@H](CO)[C@H]2Cn3c(cccc3=O)[C@@H]1N2S(=O)(=O)c1ccccc1F)N1CCOCC1`, for which the growth inhibition call is “inactive”. With `C[C@@H]1CN([C@H](C)CO)C(=O)c2cc(-c3cccc(C(=O)N(C)C)c3)cnc2O[C@@H]1CN(C)S(=O)(=O)c1ccc(F)cc1`, the growth inhibition call is “inactive”. `NCC1CCC(C(=O)O)CC1` (stereo not given): the growth inhibition call is “inactive”. The value for `O=C1O[C@H](c2ccccc2)[C@H](c2ccccc2)N2[C@H]1[C@@H](C(=O)O)[C@]1(C(=O)Nc3ccc(Cl)cc31)[C@H]2c1ccc(F)cc1` was “active”; that for `C[C@@H]1CN([C@@H](C)CO)C(=O)c2cc(C3=CCCCC3)cnc2O[C@H]1CN(C)C(=O)CN1CCOCC1` was “inactive”. Turning to `C[C@@H]1CCCCO[C@H](CN(C)C(=O)NC2CCCCC2)[C@@H](C)CN([C@H](C)CO)C(=O)c2cc(NC(=O)NC3CCCCC3)ccc2O1`, the growth inhibition call is “inactive”. The entry for `CCS(=O)(=O)Nc1ccc2c(c1)C(=O)N(C)[C@@H]1CC[C@H](CC(=O)NCCOC)O[C@@H]1CO2` is “inactive”.
